Here are results for 19 variants from the RNAGym collection of RNA variant scans (doi:10.1073/pnas.2313332121).

The labels stand for the following.
B1: TPR 5TU (parent)
chain: GGAUCUUCUCGAUCUAACAAAAAAGACAAAUCUGCCACAAAGCUUGAGAGCAUCUUCGGAUGCAGAGGCGGCAGCCUUCGGUGGCGCGAUAGCGCCAACGUUCUCAACUAUGACACGCAAAACGCGUGCUCCGUUGAAUGGAGUUUAUCAUG

This sample is rich in variants without activity.

Variants of B1 are the subject of the series. The series can be described thus: polymerase ribozyme fitness, log enrichment relative to wild type (log ratio); higher = more active; in vitro selection for triplet polymerase activity. An outline of the steps:
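Mutant libraries of both subunits of a heterodimeric triplet polymerase ribozyme were PCR-built, transcribed, and selected once in triplicate, with frozen incubation at −7 °C and capture of gel-excised extended constructs on streptavidin beads before RT-PCR. Illumina sequencing of input and output libraries was filtered to genotypes with ≥10 input reads and ≥1 read per output. Fitness is the logarithm of genotype enrichment over wild-type enrichment, using inverse-variance-weighted replicate averages. The logarithm is base 2.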
Consider GGAUCUUCUCGAUCUAACAAAAAAUACAAAUCUGCCACAAAGCUUGAGAGCAUCUUCGGAUGCAGAGGCGGCAGCCUUCGGUGGUGCGAUAGCGCCAACGUUCGCAACUAUGACACGCAAAACGCGUACUCCGUUGAAUGAGGUUUAUCAUG [G25U C85U U104G G128A G141A A142G], for which the “polymerase ribozyme fitness (log ratio)” value is at most -4.2.
Consider GGAUCUUCUCGAUCUAACAAAAAAUACAAAUCUGCCACAAAGCUUGAGAGCAUCUUCGGAUGCAGAGGCGGCAGCCUUCGGUGGCGGGAUAGCGCCAACGUUCUCAACUAUGACACGCAAAACGCGUGCUCCGUUGAAUGGAGUUUAUCAUG [G25U C87G], for which the “polymerase ribozyme fitness (log ratio)” value was at most -4.2.
In the case of GGAUCUUCUCGAUCUAACAAAAAAUCCAAAUCUGCCACAAAGCUUGAGAGCAGAUUCGGAUGCAGAGUCGGCAGCCUUCGGUGGCGCGAUAGCGCCAACGUUCUCAACUAUGACACGCCAAACGCGUGCUCCGUUGAAUGGAAUUUAUCAUG [G25U A26C U53G C54A G68U A119C G143A], the “polymerase ribozyme fitness (log ratio)” value was at most -4.2.
With GGAUCUUCUCGAUCUAACAAAAAAUACAAAUCUGCCACACAGCUUCAGAGCAUCUUCGGAUGCAGAGGCAGCAGCCUUCGGUGGCUCGAUAGCGCCAACGUUCUCAACUAGGACACGUAAAACGCGUGCUCCGUUGAAUCGAGUUUAUCAUG [G25U A40C G46C G70A G86U U111G C118U G140C] the figure was at most -4.2.
With GGAUCUUCUCGAUCUAACAAAAAAUACAAAUCUGCCACAAAGCUUGAGAGCAUCUUCGGAUGCAGAGGCGGCAGCCUUCGGUGGCGCGAUAGCGCAAACGUUCUCAACUAUGACACGCAAAACGCGUGCUCCGUUGAAUGGGGUUUAUCAUG [G25U C96A A142G] the figure was -4.05.
The result for GGAUCUUCUCGAUCUAACAAAAAAUACAAAUCUGCCCCAAAGCUUGAGAGCAUCUUCGGAUGCAGAGGCGGCAGCCUUCGGUAGCGCGAUAGCGCCAACGUUCUCAACUAUGACACGCAAAACGCGUGCUCCGCUGAAUGGAGUUUAUCAUG [G25U A37C G83A U134C] reads -2.66; that for GGAUCUUCUCGAUCUAACAAAAAAUACAAAUCUGCCACAAAGCUUGAGAGCAUCUUCGGAUGCAGAGGAGGCAGCCUUCGGGGGCGCGGUAGCGCCAACGUUCUCAACUAUGACACGCAAAACGUGUGCUCCGUUGAAUGGAGUUUAUUAUG [G25U C69A U82G A89G C125U C149U], at most -4.2.
Take GGAUCUUCUCGAUCUAACAAAAAACACAAAUCUGCCACAAAGCUCGAGAGCAUCUUCGGAUGCAGAGGCGGCAGCCUUCGUUGGCACGAUAGGGCCAACGUUCUCAACUAUGACACGCAAAACGCGUGCUCCGUUGAAUGGAGUUUACCAUG [G25C U45C G81U G86A C93G U148C]: the “polymerase ribozyme fitness (log ratio)” value was at most -4.2.
GGAUCUUCUCGAUCUAACAAAAAACACAAAUCAGCCACAAAGCUUGAGAGCAUCUUCGGAUGCAGAGGGGACAGCCUUCGGUGGCGCGAUAGCGCCAACGUUCUCAACUAUGACACGCAAAACGCGUGCUCCGUUGAAUGGAGUUUAUCAUG [G25C U33A C69G G71A]: the “polymerase ribozyme fitness (log ratio)” value was at most -4.2.
Take GGAUCUUCUCGAUCUAACAAAAAAUACAAAUCUGCCACAAAGCUUGAGAGCAUCUUUGGAUGCAGAGUCGGCAGCCAUCGGUGGCGCGAUAGCACCAACGUUCUCAACUAUGACAUGCAAAACGCGUGCUCCGUUGAAUAGAGUUUAUCAUG [G25U C57U G68U U77A G94A C116U G140A]: the “polymerase ribozyme fitness (log ratio)” value was at most -4.2.
The result for GGAUCUUCUCGAUCUAACAAAAAAUACAAAUCUGCCACAAAGCUUGAGAGCAUCUUCGGAUGCAGAGGCGGCAGCUUUCGGUGGCGCGAUAGCGCCAACGUUCUCAACUAUGACACGCAAAACGCGUGCUCCGUUGAAUGGAGUUUAUCAUG [G25U C76U] reads -2.44.
In the case of GGAUCUUCUCGAUCUAACAAAAAAUACAAAUCUGCCACAAAGCUUGAGAGCAUCUUCGGAUGCAGAGGCGGCAGCCUUCGGUGGAGCGAUAGCGCCAACGUUCUCAACUAUGACACGCAAAACGCGUGCUCCGUUGAAUGGAGUUUAUCAUG [G25U C85A], the “polymerase ribozyme fitness (log ratio)” value was -3.88.
On to GGAUCUUCUCGAUCUAACAAAAAAUACAAAUCUGCCACAAAGGUUGAGAGCAUCUUUGGAUGCAGAGGCGGCAGCCUUCGGUGGCGCGAUAGCGCCAACGUUCUCAACUAUGACACGCAAAACGCGUGCUCCGUUGAAUGGAGGUUAUCAAG [G25U C43G C57U U144G U151A], for which the “polymerase ribozyme fitness (log ratio)” value is at most -4.2.
Consider GGAUCUUCUCGAUCUAACAAAAAAUACAAAUCUGCCACAAGGCUUGAGAGCAGUUUCGGAUGCAGAGGCGGCAGCCUUCGGUGGCGCGAUACCGCCAACGUUCUCAACUAUGACACGCAAAACACGUGCUCCGUUGAAUGGAGUUUAUCACG [G25U A41G U53G C54U G92C G124A U151C], for which the “polymerase ribozyme fitness (log ratio)” value is at most -4.2.
Take GGAUCUUCUCGAUCUAACAAAAAAUACAAAUCUGCCACAAAGUUUGAGAGCAUCAUCGGCUGCAGAGGCGGCAGCCUUCGGUGGCGCGAUAACGCCAACGUUAUCAACUAUGACACGCAAAACGCGUGCUCCGUUGAAUGGAGUUUAUCAUG [G25U C43U U55A A60C G92A C103A]: the “polymerase ribozyme fitness (log ratio)” value is at most -4.2.
Turning to GGAUCUUCUCGAUCUAACAAAAAAUACAAAUUUGCCACAAAGCUUGAGAGCAUCUUUGGAUGCAGAGGCGGCACCCUUCGGUGGCGCGAUAGAGCCAACGUUCUCAACUAUGCCACGCAAAACGCGUGCUCCGUUGAAUGGAUUUUAUCAUG [G25U C32U C57U G74C C93A A113C G143U], the “polymerase ribozyme fitness (log ratio)” value is at most -4.2.
The result for GGAUCUUCUCGAUCUAACAAAAAAUACAAAUCUGCCACACAGCUUGAGAGCAUCUUCGGAUGCAGAGGCGGCAGCCUUCGGGGGCGCGAUGGCGGCAACGUUCUCAACUAUGACACGCAAAACGCGUGCUCCGUUGAAUGGAGUUUAUCAUG [G25U A40C U82G A91G C95G] reads at most -4.2; that for GGAUCUUCUCGAUCUAACAAAAAAUACAAAUCUGCCACAAAGCUUGAGAGCAUCUUCGGAUGCAGAGGCGGCAGCUUUCGGUGGCGCGAUAGCCCCAACGUUCUCAACUAUGACACGCAGAACGCGUGCUCCGUUGAAUGGAGUUUAUCAUG [G25U C76U G94C A120G], -2.88; that for GGAUCUUCUCGAUCUAACAAAAAAUACAAAUCUGCCACAAAGCUUGAGAGCAUCUUCGGAUGCAGAGGCGGCAGACUUCGGUGGCGCGAUCGCGCCAACGUUCUCAACUAUGACACGCAAAACGCGUGCUCCGUUGAAUGGAGUUUAUCAUG [G25U C75A A91C], at most -4.2.
